From the supplement of paper PMC12067230
Single values of this set are uncertain.
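Note: [psi-pin-] Saccharomyces cerevisiae expressing SupN fusions, induced by 100 µM Cu2SO4, selected 7 d at 30 °C without adenine and uracil, scored by deep sequencing of output versus input.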

Assay: amyloid nucleation score relative to library mode (yeast Sup35 reporter selection) (log enrichment difference); higher = more amyloid nucleation; sequences are the first 22 residues of the Bri2 peptide extended by up to 12 random residues
Conditions: random library (experiment): 1;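 active = nucleation score significantly above 0 at FDR 0.05; inactive = not significantly above 0 or absent from output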
With EASNCFAIRHFENKFAVETLICCSSWYESNRRLE the amyloid nucleation score was 7.47.
For EASNCFAIRHFENKFAVETLICISPI, the amyloid nucleation score was “inactive”.
With EASNCFAIRHFENKFAVETLICVYRGVEVRWLLW the amyloid nucleation score was “inactive”.
In the case of EASNCFAIRHFENKFAVETLICKAESENWRDV, the amyloid nucleation score is reported as “inactive”.
In the case of EASNCFAIRHFENKFAVETLICPVCSRVSWVRRA, the amyloid nucleation score is reported as “inactive”.
In the case of EASNCFAIRHFENKFAVETLICDNVVACEHEAAV, the amyloid nucleation score is reported as “inactive”.
In the case of EASNCFAIRHFENKFAVETLICQLQVSRRTKVFR, the amyloid nucleation score is reported as 2.75.
For EASNCFAIRHFENKFAVETLICRKTCFDRRPGAL, the amyloid nucleation score was “inactive”.
In the case of EASNCFAIRHFENKFAVETLICAAVWTSARSVRG, the amyloid nucleation score is reported as “inactive”.
With EASNCFAIRHFENKFAVETLICLCADKVVWTYWA the amyloid nucleation score was “inactive”.
In the case of EASNCFAIRHFENKFAVETLICLCPFGVTCYLLA, the amyloid nucleation score is reported as 1.46.
Work on EASNCFAIRHFENKFAVETLICCLRDESRELEGE yielded an amyloid nucleation score of 3.82.
With EASNCFAIRHFENKFAVETLICLLFTGLYTGRGS the amyloid nucleation score was “inactive”.
With EASNCFAIRHFENKFAVETLICTSWSGNRGMATY the amyloid nucleation score was “inactive”.
In the case of EASNCFAIRHFENKFAVETLICPNRLGALPCLWG, the amyloid nucleation score is reported as 2.75.
In the case of EASNCFAIRHFENKFAVETLICDLFIEP, the amyloid nucleation score is reported as “inactive”.
In the case of EASNCFAIRHFENKFAVETLICDTDVRLLVCLNA, the amyloid nucleation score is reported as “inactive”.
For EASNCFAIRHFENKFAVETLICCMCIRYRAIRVL, the amyloid nucleation score was “inactive”.
With EASNCFAIRHFENKFAVETLICEADALTEHIRRG the amyloid nucleation score was -0.0572.
For EASNCFAIRHFENKFAVETLICALGLLRQRVRRL, the amyloid nucleation score was “inactive”.
In the case of EASNCFAIRHFENKFAVETLICHLMCFVGWFEGG, the amyloid nucleation score is reported as 0.176.
For EASNCFAIRHFENKFAVETLICLSGDGLSWTQCV, the amyloid nucleation score was 4.86.
For EASNCFAIRHFENKFAVETLICRATVISH, the amyloid nucleation score was “inactive”.
With EASNCFAIRHFENKFAVETLICVRRCRYWRRLPV the amyloid nucleation score was 1.14.
For EASNCFAIRHFENKFAVETLICACLLRCVVGVAA, the amyloid nucleation score was “inactive”.
With EASNCFAIRHFENKFAVETLICCWRHQMGARGG the amyloid nucleation score was “inactive”.
With EASNCFAIRHFENKFAVETLICGSMSGTQGWWGL the amyloid nucleation score was 5.71.
Work on EASNCFAIRHFENKFAVETLICNLIALVACATRL yielded an amyloid nucleation score of 3.26.
With EASNCFAIRHFENKFAVETLICRTRECHWVVSVI the amyloid nucleation score was “inactive”.
For EASNCFAIRHFENKFAVETLICMDGRWVVGVNGT, the amyloid nucleation score was 5.24.

Same assay, conditions: random library (experiment): 2
Work on EASNCFAIRHFENKFAVETLICIENEGRWLRRFV yielded an amyloid nucleation score of 2.15.
EASNCFAIRHFENKFAVETLICFCGDRHGFEQAG gave an amyloid nucleation score of 7.89.
With EASNCFAIRHFENKFAVETLICCYMCISATCSRR the amyloid nucleation score was 1.57.
For EASNCFAIRHFENKFAVETLICGNS, the amyloid nucleation score was “inactive”.
EASNCFAIRHFENKFAVETLICDFG showed an amyloid nucleation score of 0.454.
With EASNCFAIRHFENKFAVETLICFSGFMFGYLVYE the amyloid nucleation score was “inactive”.
Sequence EASNCFAIRHFENKFAVETLICYLYGM has an amyloid nucleation score of 5.61.
EASNCFAIRHFENKFAVETLICFRMSGNEVAWSS gave an amyloid nucleation score of -0.0677.
Sequence EASNCFAIRHFENKFAVETLICGFKVYSYTCLQS has an amyloid nucleation score of 5.37.
Work on EASNCFAIRHFENKFAVETLICFFANISPGETIT yielded an amyloid nucleation score of 8.34.
In the case of EASNCFAIRHFENKFAVETLICMPLRYGSFSYSF, the amyloid nucleation score is reported as “inactive”.
With EASNCFAIRHFENKFAVETLICLCVVYTGLDSSI the amyloid nucleation score was “inactive”.
With EASNCFAIRHFENKFAVETLICDVSKAACDST the amyloid nucleation score was “inactive”.
EASNCFAIRHFENKFAVETLICCTKPYFRTSPPD showed an amyloid nucleation score of 0.386.
Sequence EASNCFAIRHFENKFAVETLICDVVRIGIPDLLY has an amyloid nucleation score of 5.77.
In the case of EASNCFAIRHFENKFAVETLICFVYLFLRFRLVS, the amyloid nucleation score is reported as “inactive”.
In the case of EASNCFAIRHFENKFAVETLICDAHSLICDTVLG, the amyloid nucleation score is reported as -0.728.
With EASNCFAIRHFENKFAVETLICAVVIYFYTGYPL the amyloid nucleation score was “inactive”.
In the case of EASNCFAIRHFENKFAVETLICWVCTTIANWYGE, the amyloid nucleation score is reported as “inactive”.
With EASNCFAIRHFENKFAVETLICFLFVHLCVYTAS the amyloid nucleation score was “inactive”.
EASNCFAIRHFENKFAVETLICNFLQHLIGPSNQ showed an amyloid nucleation score of 6.07.
For EASNCFAIRHFENKFAVETLICPVQAN, the amyloid nucleation score was “inactive”.
In the case of EASNCFAIRHFENKFAVETLICLYRCHLRGSRIQ, the amyloid nucleation score is reported as “inactive”.
For EASNCFAIRHFENKFAVETLICGYDRVELTWRRV, the amyloid nucleation score was “inactive”.

Same assay, conditions: random library (experiment): 3
Sequence EASNCFAIRHFENKFAVETLICLMDPDSRPAIL has an amyloid nucleation score of 0.0748.
For EASNCFAIRHFENKFAVETLICYLVRFWHYPFTP, the amyloid nucleation score was “inactive”.
EASNCFAIRHFENKFAVETLICRYLAGMCNRFLR showed an amyloid nucleation score of -0.142.
With EASNCFAIRHFENKFAVETLICYLRSSEPCRAKE the amyloid nucleation score was “inactive”.
For EASNCFAIRHFENKFAVETLICWGVAPGSGSVED, the amyloid nucleation score was 4.38.
With EASNCFAIRHFENKFAVETLICTFTMGQSSGVEP the amyloid nucleation score was 5.17.
For EASNCFAIRHFENKFAVETLICDFQWHYLRSCLG, the amyloid nucleation score was “inactive”.
With EASNCFAIRHFENKFAVETLICKECLYHLGCQVA the amyloid nucleation score was “inactive”.
In the case of EASNCFAIRHFENKFAVETLICVRGDLVHTTSQR, the amyloid nucleation score is reported as 8.9.
With EASNCFAIRHFENKFAVETLICIHECIFRLYPWM the amyloid nucleation score was “inactive”.
In the case of EASNCFAIRHFENKFAVETLICGSARYHDIAAGA, the amyloid nucleation score is reported as “inactive”.
In the case of EASNCFAIRHFENKFAVETLICQEGMKFGQVGHV, the amyloid nucleation score is reported as “inactive”.
EASNCFAIRHFENKFAVETLICCPKFVASVGDTS gave an amyloid nucleation score of 5.55.
With EASNCFAIRHFENKFAVETLICGHAWWPLLFAKG the amyloid nucleation score was “inactive”.
In the case of EASNCFAIRHFENKFAVETLICEWD, the amyloid nucleation score is reported as “inactive”.
For EASNCFAIRHFENKFAVETLICPKCQSVGPCVQG, the amyloid nucleation score was 3.17.
For EASNCFAIRHFENKFAVETLICACELYPKRNCFA, the amyloid nucleation score was “inactive”.
For EASNCFAIRHFENKFAVETLICVVIAMCTSNFCV, the amyloid nucleation score was “inactive”.
For EASNCFAIRHFENKFAVETLICECRYMAELGSRR, the amyloid nucleation score was 4.75.
With EASNCFAIRHFENKFAVETLICTIVAEWSTNLGY the amyloid nucleation score was 1.76.
In the case of EASNCFAIRHFENKFAVETLICFAAYEWGFGRSG, the amyloid nucleation score is reported as 3.14.
With EASNCFAIRHFENKFAVETLICLGGGAYDQGEDW the amyloid nucleation score was “inactive”.
EASNCFAIRHFENKFAVETLICYLLFIDDGKR gave an amyloid nucleation score of 2.85.
For EASNCFAIRHFENKFAVETLICLRCVQLCTKVIM, the amyloid nucleation score was “inactive”.
Work on EASNCFAIRHFENKFAVETLICYVVRVRRQGTRC yielded an amyloid nucleation score of 2.42.
In the case of EASNCFAIRHFENKFAVETLICCRHSWP, the amyloid nucleation score is reported as 6.39.
In the case of EASNCFAIRHFENKFAVETLICAWGLHLEDCQMM, the amyloid nucleation score is reported as “inactive”.
In the case of EASNCFAIRHFENKFAVETLICVRMLGHQ, the amyloid nucleation score is reported as 3.26.
For EASNCFAIRHFENKFAVETLICKLEGQYARFLSF, the amyloid nucleation score was “inactive”.
For EASNCFAIRHFENKFAVETLICQASLPCLVGVVE, the amyloid nucleation score was “inactive”.
EASNCFAIRHFENKFAVETLICTDRGASLMYDYP showed an amyloid nucleation score of 3.34.
EASNCFAIRHFENKFAVETLICIRMWVIGRSYSV gave an amyloid nucleation score of 2.41.
